Assay results from PubChem BioAssay AID686978 (National Center for Advancing Translational Sciences (NCATS), 2013).
Several values for one entry are separate records, joined by “and”; a condition that tells them apart may be missing. Equal values may be shown once. Out of some 420,000 compounds screened, about 64,000 (15%) were called active. Inconclusive means that the source gave no clear call. Such entries were picked first, then a sample of the others. The call rests on the fitted dose curve; in most records, active means well fitted inhibition curve with a large enough effect; inconclusive means small, poorly fitted or top-dose-only effect; inactive means flat fitted curve, though single readings scatter. Potencies of inconclusive entries are left out as doubtful fits. Where a structure was tested more than once in an assay, its records may differ in their call.
Potency means the concentration at half of the fitted maximal effect; tags describe the fitted curve by direction and shape.

Experiment: qHTS for Inhibitors of human tyrosyl-DNA phosphodiesterase 1 (TDP1): qHTS in cells in absence of CPT; further: nearly all actives have a fitted effect of over 55% in size
Conditions: DT40 Tdp1-/- hTDP1 cells, no CPT, ATP luminescence, 48 h; series mostly up to 46.2 µM
Method in brief: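 Chicken DT40 Tdp1-/- cells complemented with human TDP1, screened without camptothecin (DMSO vehicle only), 400 cells/well. Compounds pin-transferred, cells incubated at 37 °C for at least 48 hr. Growth read as ATP-dependent luminescence (CellTiter-Glo, 30 min at RT).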
In the case of `COc1cc(C(=O)NC2CC(C)(C)Cc3c2cnn3-c2ccccc2)cc(OC)c1OC` (stereo not given), the Potency is reported as inconclusive [inhibitor, partial curve].
With `O=C(CCC(=O)N1CCOc2ccccc21)N1CCN(c2ccccc2)CC1` the Potency was inconclusive [inhibitor, single point].
For `O=C(CSCc1cccc(Cl)c1)N/N=C/c1ccc(OCC(=O)N2CCCCC2)cc1`, the Potency was active: 15.8 µM.
With `CC(=O)C(C(c1ccccc1)c1c[nH]c2ccccc12)[N+](=O)[O-]` (stereo not given) the Potency was active: 5.8 µM.
With `O=C(NC1CCN(S(=O)(=O)c2ccc(F)cc2)CC1)c1ccc(F)cc1` the Potency was “inactive”.
For `O=C(OCc1ccccc1)N1CCCCC1c1c(Cl)cccc1Br` (stereo not given), the Potency was inconclusive [inhibitor, single point].
For `COc1cc(Cl)c(C)cc1NC(=O)c1cnn(-c2ccc(C)cc2)c1-n1cccc1`, the Potency was “inactive”.
With `CCOC(=O)CN1C(=O)CC(c2ccccc2)C1=O` (stereo not given) the Potency was inconclusive [inhibitor, single point].
With `COc1cc(Nc2ccc(S(N)(=O)=O)cc2)c([N+](=O)[O-])nc1[N+](=O)[O-]` the Potency was inconclusive [inhibitor, single point].
With `O=C(NCc1nnc2n1CCN(C(=O)/C=C/c1ccccc1)CC2)c1cccc(F)c1` the Potency was “inactive”.
For `Cc1ccc(S(=O)(=O)N2C[C@@H]3[C@H]4CC[C@H](C4)[C@@H]3[C@@H](C)[C@H]2c2ccn(Cc3ccccc3)c2)cc1`, the Potency was “inactive”.
In the case of `CCOc1ccc(NC(=O)CCS(=O)(=O)c2ccc3nc(C)sc3c2)cc1`, the Potency is reported as “inactive”.
With `c1coc(-c2nc3ccccn3c2Nc2ccc3c(c2)OCCO3)c1` the Potency was “inactive”.
With `CC(C)(C)n1nnnc1C(C1CC1)N1CCN(C/C=C/c2ccccc2)CC1` (stereo not given) the Potency was inconclusive [inhibitor, single point].
With `O=C(OCC(=O)N1CCOCC1)c1cc(S(=O)(=O)N2CCOCC2)c(Cl)cc1Cl` the Potency was “inactive”.
With `Cc1ccc(C)n1-c1ccc(NC(=O)c2ccccc2)cc1` the Potency was inconclusive [inhibitor, single point].
In the case of `CC(CCN1C(N(C)C)=NC[C@@H]1C)c1ccccc1` (stereo not given in full), the Potency is reported as “inactive”.
For `CCOC(=O)/C(C#N)=C/c1c(N2CCN(C)CC2)nc2ccccn2c1=O`, the Potency was “inactive”.
For `Cc1c(C(=O)NCCc2cccnc2)cnn1-c1ncc2c(n1)-c1ccccc1CC2`, the Potency was inconclusive [inhibitor, single point].
In the case of `Cc1c(Br)c([N+](=O)[O-])nn1CC(=O)Nc1sc2c(c1C(=O)OC(C)C)CCCC2`, the Potency is reported as inconclusive [inhibitor, single point].
In the case of `CN1CCc2c(sc3nc(NCCO)n(-c4cccc(Cl)c4)c(=O)c23)C1`, the Potency is reported as “inactive”.
For `CCn1cc(S(=O)(=O)c2cccc(C)c2)c(=O)c2cc(F)c(N3CCCCC3C)cc21` (stereo not given), the Potency was inconclusive [inhibitor, single point].
For `Cc1csc2ncc(C(=O)N3CCc4ccccc43)c(=O)n12`, the Potency was inconclusive [inhibitor, single point].
In the case of `Cc1nc(-c2ccc(C)c(N3CCN(C(=O)Nc4ccc(Br)cc4)CC3)c2)no1`, the Potency is reported as active: 20.6 µM.
For `COc1ccccc1NS(=O)(=O)c1cc(C(=O)NC2CCN(Cc3ccccc3)CC2)ccc1C`, the Potency was inconclusive [inhibitor, single point].
In the case of `Cc1ccc(Cn2c(SCc3ccc(C(=O)NCCc4ccccc4)cc3)nc3ccncc32)cc1`, the Potency is reported as active: 11.6 µM.
In the case of `COc1ccc(CCC(=O)NCc2ccccc2Cl)cc1OC`, the Potency is reported as “inactive”.
In the case of `CC(OC(=O)CNC(=O)c1ccc(Br)cc1)C(=O)NC1CCCCC1C` (stereo not given), the Potency is reported as inconclusive [inhibitor, single point].
With `CCn1cc(CCC(=O)NCCc2ccccc2)c2ccccc21` the Potency was inconclusive [inhibitor, partial curve].
With `O=C(C1CCN(c2nc(-c3ccccc3)nc3c2CCC3)CC1)N1CCCC1` the Potency was inconclusive [inhibitor, single point].
With `CN(CC(=O)Nc1ccc(Cl)c(C(F)(F)F)c1)C(=O)CNC(=O)C1CCCCC1` the Potency was active: 16.4 µM.
With `COc1cccc(CN(Cc2ccco2)C(c2ccc(F)cc2)c2nnnn2C(C)(C)C)c1` (stereo not given) the Potency was inconclusive [inhibitor, single point].
With `COc1ccc(OCc2nn3c(Cn4cnc5ccccc54)nnc3s2)cc1` the Potency was inconclusive [inhibitor, single point].
For `COc1ccc(-c2cn3c(n2)sc2cc(C(=O)Nc4ccccc4F)ccc23)cc1`, the Potency was active: 3.66 µM.
In the case of `CS(=O)(=O)c1nc(-c2ccc(Br)cc2)n[nH]1`, the Potency is reported as “inactive”.
For `O=[N+]([O-])c1ccc(Cn2cc(-c3cccc(C(F)(F)F)c3)nn2)cc1`, the Potency was “inactive and active: 15.8 µM”.
In the case of `CCOC(=O)c1c(NC(=O)C2CCCCC2)sc2c1CCN(CC)C2`, the Potency is reported as inconclusive [inhibitor, single point].
With `O=C(CCS(=O)(=O)c1ccccc1)Nc1ccc(N2CCN(Cc3ccccc3)CC2)cc1` the Potency was inconclusive [inhibitor, partial curve].
With `COc1ccc(N(CC(=O)NCc2ccc(C)cc2)S(=O)(=O)c2ccccc2[N+](=O)[O-])c(OC)c1` the Potency was active: 23.1 µM.
In the case of `COC(=O)c1ccc(Nc2ncnc3c2cnn3-c2cccc(C)c2)cc1`, the Potency is reported as inconclusive [inhibitor, partial curve].
With `CCn1nnnc1SCC(=O)c1cccc(OC)c1` the Potency was inconclusive [inhibitor, single point].
With `COc1cc(OC)cc(-c2sc3ccc(OC)cc3c2C#CCO)c1` the Potency was active: 20.6 µM.
In the case of `CN(C)CCNC(=O)c1ccc2nc(CCc3ccccc3)oc2c1`, the Potency is reported as inconclusive [inhibitor, single point].
With `N#C/C(=C\Nc1ccc2c(c1)OCCO2)c1nc(-c2ccccc2)cs1` the Potency was inconclusive [inhibitor, single point].
With `CC1=C(C)CC(C(=O)NNC(=O)c2ccccc2O)C(C(=O)O)C1` (stereo not given) the Potency was inconclusive [inhibitor, single point].
With `COc1ccc(Cc2nnc(SCC(=O)NCc3ccco3)o2)cc1` the Potency was “inactive”.
For `COc1cc2cc(CN(CCN3CCOCC3)C(=O)Nc3ccc(F)cc3)c(=O)[nH]c2cc1OC`, the Potency was “inactive”.
In the case of `CC(C(=O)Nc1ccccc1Sc1ccccc1)N(c1ccccc1)S(C)(=O)=O` (stereo not given), the Potency is reported as inconclusive [inhibitor, single point].
For `Cc1cc(C(=O)N2CCCC(CCC(=O)N3CCN(c4ccccn4)CC3)C2)c(C)o1` (stereo not given), the Potency was inconclusive [inhibitor, single point].
For `CCOc1cc(/C=N/NC(=O)CCn2nc(C)cc2C)ccc1O`, the Potency was “inactive”.
With `CC1(C(=O)Nc2ccc3c(c2)OCCO3)CCN1C(=O)Cc1ccc(-c2ccccc2)cc1` (stereo not given) the Potency was inconclusive [inhibitor, single point].
In the case of `Cc1ccc(S(=O)(=O)N(C)c2ccc(C(=O)NCC(c3ccco3)N(C)C)cc2)cc1` (stereo not given), the Potency is reported as inconclusive [inhibitor, partial curve].
With `O=c1c(C(c2ccc(Br)cc2)c2c(O)nc3n(c2=O)CCS3)c(O)nc2n1CCS2` the Potency was “inactive”.
For `Cc1ccc(-c2nn(-c3ccccc3)cc2C(=O)Nc2ccc(C(=O)O)cc2)cc1`, the Potency was inconclusive [inhibitor, partial curve].
In the case of `COc1ccc(NC(=O)/C(C#N)=C/c2ccc(C)o2)cc1`, the Potency is reported as inconclusive [inhibitor, partial curve].
For `Cc1cc(-c2ccc(C)c(S(=O)(=O)N(Cc3cccs3)C(C)C)c2)on1`, the Potency was inconclusive [inhibitor, single point].
With `CC(C)C(=O)Nc1ccc(NC(=O)c2ccc([N+](=O)[O-])cc2Cl)cc1` the Potency was active: 18.4 µM.
With `CC(C)c1nnc(SCC(=O)NC2CCCC2)n1C` the Potency was “inactive”.
In the case of `CCOc1ccc2nc(NC(=O)c3cccc(N4C(=O)CCC4=O)c3)sc2c1`, the Potency is reported as inconclusive [inhibitor, single point].
With `CCN(CC)CCNC(=O)c1cc2cc(Br)ccc2s1` the Potency was inconclusive [inhibitor, single point].
With `O=C(N/N=C/C(Br)=C/c1ccccc1)c1cc(-c2ccco2)[nH]n1` the Potency was active: 8.2 µM.
With `COc1ccccc1OC(C)C(=O)O` (stereo not given) the Potency was inconclusive [inhibitor, full curve].
For `COc1ccc(Cn2c(=O)[nH]c3cc(C(=O)N4CCN(c5ccc(OC)cc5)CC4)ccc3c2=O)cc1`, the Potency was inconclusive [inhibitor, partial curve].
In the case of `O=C(Nc1n[nH]c(C(F)(F)F)n1)c1cccs1`, the Potency is reported as inconclusive [inhibitor, partial curve].
With `Cn1c(Oc2ccc(F)cc2F)c(C=O)c2ccccc21` the Potency was inconclusive [inhibitor, partial curve, poor fit].
In the case of `CCOC(=O)c1[nH]c2ccccc2c1NC(=O)c1ccc(Br)o1`, the Potency is reported as inconclusive [inhibitor, single point].
With `CSCC[C@H](NC(=O)OC(C)(C)C)c1nnc(SCC=C(C)C)o1` the Potency was “inactive”.
For `CCOC(=O)CCc1c(C)c2c(C)nn(-c3ccccc3)c2[nH]c1=O`, the Potency was inconclusive [inhibitor, partial curve].
With `CN(C)c1ccc(CNc2nc(-c3ccco3)nn2S(C)(=O)=O)cc1` the Potency was inconclusive [inhibitor, single point].
With `CC1CCCN(c2ncnc3c2nc2n3CCCCC2)C1` (stereo not given) the Potency was inconclusive [inhibitor, partial curve].
